Reference: patent US9833497B2, “Human originated EGF domain proteins and use of the same” (CHENGDU SOURCEBIO LIMITED-LIABILITY COMPANY, priority 2013, dated 2017)

Assays:
Assay type in all cases: cell-based
E. coli DH5α = assay: Antibacterial activity: MIC and growth curve against E. coli DH5α in 96-well plate; conditions: minimal inhibitory concentration against E. coli DH5α, 5×10^5 CFU/mL, 37° C., judged after 8 h
Description: 1. E. coli DH5α was exemplified. E. coli DH5α was streaked and cultured on LB solid medium. Then, a typical clone was picked and inoculated into common LB liquid medium, cultured at 37° C. with shaking at 185 rpm until the logarithmic growth phase was reached (OD600 of about 0.5). The bacterial culture was centrifuged at 4000×g for 3 min, the supernatant was discarded, and the thalli were resuspended with fresh LB medium.
2. The above-mentioned bacterial suspension was diluted and inoculated into a 96-well plate with the total volume of 100 μL per well and a bacterial count of 5×10^5 CFU/mL.
3. The recombinant protein hF VII-EGF1 was added to the above-mentioned wells with the final protein concentration in the well of the highest protein concentration being 50 μg/mL. Basing on this final concentration, a two-fold serial dilution was performed till a protein concentration gradient consisting of 50, 25, and 12.5 μg/mL was set up. Three parallel wells were set up for each concentration in the gradient.
4. […] Samples were taken every 30 min, the absorbance values were determined at 600 nm wavelength under a ultra violet spectrophotometer, and an inhibition curve was plotted. […]
According to the experimental procedures in Example 14, the minimal inhibitory concentrations (MIC, μg/mL) of the other human-originated EGF domain proteins (PRT2 to PRT1498 in Table 1) for E. coli DH5α were determined.

E. coli BL21 = assay: MIC against Gram-negative bacteria: E. coli BL21; conditions: E. coli BL21; 10 h cultivation at 37° C.; 5×10^5 CFU/mL
Description: (§1) 1. Gram-negative bacteria, such as E. coli BL21, Pseudomonas aeruginosa, Klebsiella pneumonia, Enterobacter cloacae, Aeromonas hydrophila, Citrobacter diversus, Moraxella catarrhalis, Proteus mirabilis, Proteus vulgaris, Serratia marcescens, etc were streaked on solid LB medium and cultured respectively. Then, typical clones were picked, inoculated into common liquid LB medium respectively, and cultured at 37° C. with shaking at 185 rpm until the McFarland specific turbidity was 0.5. The bacterial culture of each of Gram-negative bacteria was centrifuged at 4000×g for 3 min, the supernatant was discarded, and the thalli were resuspended with fresh LB medium.
(§2) 2. The above-mentioned bacterial suspensions were diluted and inoculated into 96-well plates with the final concentration of the bacterial suspension being 5×10^5 CFU/mL per well.
(§3) 3. Each of the purified human-originated EGF domain proteins (PRT1 to PRT1498 in Table 1) was added to each of the above wells and subjected to two-fold serial dilution in concentration. Three parallel wells were set up for each concentration in the gradient.
(§4) 4. The above-mentioned 96-well plates were placed and cultured at 37° C. in shaking incubator shaking at 175 rpm. […] The minimal inhibitory concentration MIC is defined as the lowest concentration of the recombinant protein at which there is no growth of the bacteria.

Pseudomonas aeruginosa = assay: MIC against Gram-negative bacteria: Pseudomonas aeruginosa; conditions: P. aeruginosa; 10 h cultivation at 37° C.; 5×10^5 CFU/mL
Description: as §1, §2, §3, §4

Klebsiella pneumonia = assay: MIC against Gram-negative bacteria: Klebsiella pneumonia; conditions: K. pneumonia; 10 h cultivation at 37° C.; 5×10^5 CFU/mL
Description: as §1, §2, §3, §4

Enterobacter cloacae = assay: MIC against Gram-negative bacteria: Enterobacter cloacae; conditions: E. cloacae; 10 h cultivation at 37° C.; 5×10^5 CFU/mL
Description: as §1, §2, §3, §4

Aeromonas hydrophila = assay: MIC against Gram-negative bacteria: Aeromonas hydrophila; conditions: A. hydrophila; 10 h cultivation at 37° C.; 5×10^5 CFU/mL
Description: as §1, §2, §3, §4

Citrobacter diversus = assay: MIC against Gram-negative bacteria: Citrobacter diversus; conditions: C. diversus; 10 h cultivation at 37° C.; 5×10^5 CFU/mL
Description: as §1, §2, §3, §4

Moraxella catarrhalis = assay: MIC against Gram-negative bacteria: Moraxella catarrhalis; conditions: M. catarrhalis; 10 h cultivation at 37° C.; 5×10^5 CFU/mL
Description: as §1, §2, §3, §4

Proteus mirabilis = assay: MIC against Gram-negative bacteria: Proteus mirabilis; conditions: P. mirabilis; 10 h cultivation at 37° C.; 5×10^5 CFU/mL
Description: as §1, §2, §3, §4

Proteus vulgaris = assay: MIC against Gram-negative bacteria: Proteus vulgaris; conditions: P. vulgaris; 10 h cultivation at 37° C.; 5×10^5 CFU/mL
Description: as §1, §2, §3, §4

Serratia marcescens = assay: MIC against Gram-negative bacteria: Serratia marcescens; conditions: S. marcescens; 10 h cultivation at 37° C.; 5×10^5 CFU/mL
Description: as §1, §2, §3, §4

B1: PRT861 (protein, listed as Homo sapiens)
chain: CSCNGHARRCRFNMELYRLSGRRSGGVCLNCRHNTAGRHCHYCREGFYRDPGRALSDRRAC
With B1 the MIC (E. coli DH5α) was 12.5 µg/mL, the “MIC (μg/mL) E. coli BL21” value (E. coli BL21) was 12.5 µg/mL and the “MIC (μg/mL) P. aeruginosa” value (Pseudomonas aeruginosa) was 12.5 µg/mL. For the same molecule, the “MIC (μg/mL) K. pneumonia” value (Klebsiella pneumonia) was 25 µg/mL, the “MIC (μg/mL) E. cloacae” value (Enterobacter cloacae) was 12.5 µg/mL and the “MIC (μg/mL) A. hydrophila” value (Aeromonas hydrophila) was 25 µg/mL. The “MIC (μg/mL) C. diversus” value (Citrobacter diversus) was 12.5 µg/mL, the “MIC (μg/mL) M. catarrhalis” value (Moraxella catarrhalis) was 25 µg/mL and the “MIC (μg/mL) P. mirabilis” value (Proteus mirabilis) was 12.5 µg/mL. The “MIC (μg/mL) P. vulgaris” value (Proteus vulgaris) was 25 µg/mL and the “MIC (μg/mL) S. marcescens” value (Serratia marcescens) was 12.5 µg/mL.

B2: PRT867 (protein, listed as Homo sapiens)
chain: CSCNQHARRCRFNSELFRLSGGRSGGVCERCRHHTAGRHCHYCQPGFWRDPSQPIFSRRACRA
B2 was tested, and the MIC (E. coli DH5α) was 50 µg/mL, the “MIC (μg/mL) E. coli BL21” value (E. coli BL21) was 25 µg/mL and the “MIC (μg/mL) P. aeruginosa” value (Pseudomonas aeruginosa) was 12.5 µg/mL. The “MIC (μg/mL) K. pneumonia” value (Klebsiella pneumonia) was 50 µg/mL, the “MIC (μg/mL) E. cloacae” value (Enterobacter cloacae) was 25 µg/mL and the “MIC (μg/mL) A. hydrophila” value (Aeromonas hydrophila) was 12.5 µg/mL. The “MIC (μg/mL) C. diversus” value (Citrobacter diversus) was 25 µg/mL, the “MIC (μg/mL) M. catarrhalis” value (Moraxella catarrhalis) was 50 µg/mL and the “MIC (μg/mL) P. mirabilis” value (Proteus mirabilis) was 25 µg/mL. The “MIC (μg/mL) P. vulgaris” value (Proteus vulgaris) was 12.5 µg/mL and the “MIC (μg/mL) S. marcescens” value (Serratia marcescens) was 50 µg/mL.
